The source of these data is PubChem BioAssay AID1463 (National Center for Advancing Translational Sciences (NCATS), 2008).

The whole screen tested about 280,000 compounds, of which about 2,600 (0.93%) were called active. Not shown: some 8% with an inconclusive outcome. The call rests on the fitted dose curve; in most records, active means well fitted curve in the direction sought with a large enough effect; inconclusive means small, poorly fitted or top-dose-only effect; inactive means flat fitted curve, though single readings scatter. The entries are a selection whose mix differs from that of the whole data set. More than one record can exist for a structure, and the calls need not agree.
On the % scale 0 is the no-effect control and ±100 the full control effect; potency means the concentration at half of the fitted maximal effect; tags describe the fitted curve by direction and shape or compound fluorescence and quenching.

A short description of this experiment: Counterscreen qHTS for Inhibitors of Tau Fibril Formation, Fluorescence Polarization. Further: nearly all actives have a fitted effect of over 55% in size. The following applies: tau K18 P301L (four-repeat tau fragment) Alexa594 fluorescence, heparin fibrillization; series mostly up to 57.7 µM; activity change, negative = decrease: at the top concentration. From the text: NIH Molecular Libraries Probe Production Network [MLPCN]
NIH Chemical Genomics Center [NCGC]
Assay Provider: Carlo Ballatore, University of Pennsylvania
The microtubule-associated protein tau is an abundant protein in the axons of neurons that stabilizes microtubules. With its ability to modulate microtubule dynamics, tau contributes directly or indirectly, to key structural and regulatory cellular functions. Particularly important is the influence tau exerts on axonal transport, which allows signaling molecules, trophic factors and other essential cellular constituents to travel along the axons. Under pathological conditions, tau becomes sequestered into insoluble aggregates called neurofibrillary tangles. This phenomenon is believed to have pathological consequences by promoting axonal transport deficits that ultimately lead to synaptic dysfunction and neuronal loss. To identify inhibitors of tau aggregation, a heparin-induced tau fibril formation assay was used that employed a recombinantly expressed fragment of tau, K18 (Q242-E372), bearing a P301L mutation (Gustke et al. 1994; Hong et al. 1998). […] Total fluorescence (555 nm excitation and 632 nm emission) was measured to identify fluorescent or absorbent compounds at this wavelength. Such compounds may be artifacts that interfere with the Alexa 594 Tau fluorescence polarization assay.
Gustke, N., B. Trinczek, et al. (1994). "Domains of tau protein and interactions with microtubules." Biochemistry 33(32): 9511-22.
Hong, M., V. Zhukareva, et al. (1998).
Li, W. and V. M. Lee (2006). "Characterization of two VQIXXK motifs for tau fibrillization in vitro." Biochemistry 45(51): 15692-701.
von Bergen, M., S. Barghorn, et al. (2001). "Mutations of tau protein in frontotemporal dementia promote aggregation of paired helical filaments by enhancing local beta-structure." J Biol Chem 276(51): 48165-74.
NCGC Assay Protocol Summary:
For screening, 2 uL/well human K18 P301L (15 uM unlabeled and 0.24 uM Alexa 594-labeled tau final concentrations) in reagent buffer (100 mM sodium acetate pH 7) was dispensed into black solid 1536-well plates (Grenier) using a solenoid-based dispenser. Following transfer of 23 nL compound or DMSO vehicle by a pin tool, 2 uL/well heparin (20 uM final concentration) in reagent buffer was added and the plate centrifuged 15 s at 1000 RPM. Plates were incubated 6 hr at 37 C and then 1 uL/well ThT (30 uM final concentration) was added. After a 1 hr ambient incubation, the plates were read by an Envision (Perkin Elmer) to monitor Alexa 594 FP (555 nm excitation and 632 nm emission).
Keywords: NIH Roadmap, MLPCN, MLI, MLSMR, NCGC, qHTS, tau, tauopathies, Alzheimer's disease, fibril, neurodegeneration, aggregation
A general note: The purpose of a counterscreen is to sort out artefacts and off-target activity.
As to `COCOc1cc(OC)ccc1C(=O)/C=C\c1ccc2c(c1)OCO2`, the activity change, negative = decrease was inactive: -7.33% [at 11.6 µM]. For the compound `Cc1ccn2c(Nc3ccc4c(c3)OCCO4)c(-c3ccc(Cl)s3)nc2c1`, the Potency was active: 7.08 µM [quencher]. Regarding `COCCOC(=O)C1=C(C)NC(C)=C(C(=O)OC(C)C)[C@@H]1c1cccc([N+](=O)[O-])c1`, the “activity change, negative = decrease” value was inactive: -26.9%.

For the compound `CCOC(=O)C1=C(C)NC(C)=C(C(=O)OC)C1c1cccc([N+](=O)[O-])c1` (stereo unspecified), the Potency entry was “inactive”. As to `COc1ccccc1OCCNCC(O)COc1cccc2[nH]c3ccccc3c12` (stereo unspecified), the “activity change, negative = decrease” value was inactive: -24.7%. For the compound `COC(=O)[C@@]1(Cc2ccc(OC)cc2)[C@H]2c3cc(C(=O)N4CCCC4)n(CCc4c[nH]c5ccc(O)cc45)c3C[C@H]2CN1C(=O)c1ccccc1`, the “activity change, negative = decrease” value is inactive: -26.3%. In the case of `C[C@@H](NC(=O)c1nc[nH]c1C(=O)N[C@@H](Cc1ccccc1)C(=O)OC(C)(C)C)c1ccccc1`, the “activity change, negative = decrease” value was inactive: -25.7%.

`Oc1ccc(Nc2nc3ccccc3nc2Nc2ccc(O)cc2)cc1`: the Potency was active: 7.08 µM [quencher]. `Cn1c(-c2ccccc2)c(/C=N/NC(=O)c2ccc(O)cc2)c2ccccc21`: the Potency was active: 20 µM [quencher].

`CC[C@]1(O)C[C@@H]2CN(CCc3c([nH]c4ccccc34)[C@@](C(=O)OC)(c3cc4c(cc3OC)N(C)[C@H]3[C@@](O)(C(=O)OC)[C@H](OC(C)=O)[C@]5(CC)C=CCN6CC[C@]43[C@@H]65)C2)C1`: the “activity change, negative = decrease” value was inactive: -25.8%. Regarding `Cc1c(C)c2c(c(C)c1O)CC[C@@](C)(CCC[C@H](C)CCC[C@H](C)CCCC(C)C)O2`, the Potency entry is “inactive”. As for `O=C(CSc1ncc(-c2ccccc2)[nH]1)Nc1ccc(Cl)cc1`, the Potency was active: 14.1 µM [quencher]. For `Fc1ccc(Nc2c(-c3ccco3)nc3ccccn23)cc1`, the “activity change, negative = decrease” value is inactive: -2.18%. For `C[C@@H]1CCC[C@@]2(O[C@H](CCO)C[C@@H](O)[C@@H]2O)O1`, the “activity change, negative = decrease” value is inactive: -2.25%. In the case of `O=C(CN1CCN(c2ccc(Cl)cc2)CC1)Nc1ccc(F)c(F)c1`, the “activity change, negative = decrease” value was inactive: -28.7%. On to `CC(C)c1ccc(NC(=O)C2CCCN2S(=O)(=O)c2ccc3nc(-c4ccccc4)[nH]c3c2)cc1` (stereo unspecified), for which the Potency was active: 11.2 µM [quencher].

`CCO[C@H]1OC(C(=O)Nc2ccccc2)=C[C@@H](c2coc3ccccc3c2=O)[C@@H]1CCCO`: the “activity change, negative = decrease” value was inactive: -4.29%. As to `CC1(OC(=O)c2ccc(Cl)nc2)C(=O)C=C2C=C(c3ccc(C#N)cc3)OC=C2C1=O` (stereo unspecified), the “activity change, negative = decrease” value is inactive: -23.2%. Regarding `O=C(Nc1ccc(Cl)cc1)N1CCC(c2ccccc2)C1` (stereo unspecified), the “activity change, negative = decrease” value was inactive: -27.3%. As to `COc1ccc(O[C@H]2C=C[C@@H](c3ccccc3)O[C@@H]2COC(=O)CCC(C)=NO[C@@H]2O[C@H](COC(C)=O)[C@@H](OC(C)=O)[C@H](OC(C)=O)[C@H]2OC(C)=O)cc1`, the “activity change, negative = decrease” value is inactive: -15.2%. In the case of `On1onc2c3cc(-c4ccccc4)nc3ccc21`, the Potency was active: 12.6 µM [quencher]. For the compound `O=C(NCCc1c[nH]c2ccccc12)C1CCC(Cn2c(=S)[nH]c3ccccc3c2=O)CC1` (stereo unspecified), the Potency is active: 3.98 µM [quencher].

In the case of `COc1ccc(/C=C/C(=O)c2cc3c(cc2N)OCO3)cc1`, the Potency was active: 15.8 µM [quencher]. Consider `O=C(/C=C/c1ccc(O)cc1)c1c(O)cc(O)cc1O`, for which the “activity change, negative = decrease” value was inactive: 1.81%. Take `COc1cccc(Oc2cn[nH]c2-c2ccc(OC)cc2O)c1`: the Potency was active: 14.1 µM [quencher]. The same measure, in the same setting: with `O=C(N/N=C/c1c[nH]c2ccccc12)c1sc2ccccc2c1Cl` the figure was active: 8.91 µM [quencher]. With `CCOC(=O)c1nnn(CC(=O)NC(=O)Nc2cccc(CC)c2)c1C(=O)OCC`, the “activity change, negative = decrease” value was inactive: -28.9%. In the case of `O=C1Nc2ccc(I)cc2/C1=C/c1cc(Br)c(O)c(Br)c1`, the “activity change, negative = decrease” value was inactive: -28.3%. Take `CCC1=C(OC(=O)N(CC)CC)N2C(=O)OC(=NCCc3c[nH]c4ccccc34)[C@]2(C)[C@H]2C1=CC[C@H]1C(=O)N(CC(=O)OC)C(=O)[C@H]12`: the “activity change, negative = decrease” value was inactive: -14.8%. Consider `Cc1cc(C)cc(NC(=O)C(=O)NCCc2c[nH]c3ccccc23)c1`, for which the Potency was active: 15.8 µM [quencher].

As for `COCCOC(=O)C1=C(C)NC(C)=C(C(=O)OC(C)C)C1c1cccc([N+](=O)[O-])c1` (stereo unspecified), the “activity change, negative = decrease” value is inactive: -6.5%.
